{"source": "PubChem BioAssay AID686979", "about": "(National Center for Advancing Translational Sciences (NCATS), 2013)", "note": "Screen size: about 420,000 compounds; about 50,000 (12%) were called active. Another 26% or so got no clear call; they are omitted. The call rests on the fitted dose curve; in most records, active means well fitted inhibition curve with a large enough effect; inconclusive means small, poorly fitted or top-dose-only effect; inactive means flat fitted curve, though single readings scatter. The list shows a part of the results, in another mix than the full data. On the % scale 0 is the no-effect control and ±100 the full control effect; potency means the concentration at half of the fitted maximal effect."}
{"experiment": "qHTS for Inhibitors of human tyrosyl-DNA phosphodiesterase 1 (TDP1): qHTS in cells in presence of CPT; further: nearly all actives have a fitted effect of over 55% in size", "conditions": "chicken DT40 Tdp1-/-;hTDP1 cells + 20 nM CPT, ATP luminescence, 48 h; series mostly up to 46.2 µM; activity change, negative = growth inhibition: at the top concentration", "how_it_was_run": "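Chicken DT40 Tdp1-/- cells stably complemented with human TDP1 were seeded at 400 cells/well in medium containing 20 nM camptothecin, exposed to pin-transferred compounds, and grown at 37 °C for at least 48 hr. Viability was read as ATP luminescence.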"}
{"smiles": "CC(=O)OC(C)C[N+](C)(C)C", "note": "(stereo not given)", "Potency": "inactive"}
{"smiles": "COCCNC(=S)N1CCN(S(C)(=O)=O)CC1", "activity change, negative = growth inhibition": "inactive: 34.5%"}
{"smiles": "O=C(O)c1cc(=O)c2c(OCC(O)COc3cccc4oc(C(=O)O)cc(=O)c34)cccc2o1", "Potency": "inactive"}
{"smiles": "CCN(CC)C(=O)COc1ccc(-c2nnc(Nc3ccc(OC)c(C(=O)NC)c3)c3ccccc23)cc1", "activity change, negative = growth inhibition": "inactive: -21.2%"}
{"smiles": "C[C@H]1CN([C@@H](C)CO)C(=O)CCCn2nncc2CO[C@@H]1CN(C)S(=O)(=O)c1ccc2ccccc2c1", "activity change, negative = growth inhibition": "inactive: -27%"}
{"smiles": "CCCC(C(=O)OCCN(CC)CC)(c1ccccc1)c1ccccc1", "activity change, negative = growth inhibition": "inactive: -19.4%"}
{"smiles": "COc1ccc(NC(=O)c2c(C)oc3ccc(O)c(CN4CCN(Cc5ccccc5)CC4)c23)cc1Cl", "Potency": "active: 18.4 µM"}
{"smiles": "CCN(CC)c1c([N+](=O)[O-])c(=O)sc2ccccc12", "activity change, negative = growth inhibition": "inactive: -26.6%"}
{"smiles": "CC(CN1CCOCC1)OC(=O)/C=C/c1ccccc1", "note": "(stereo not given)", "activity change, negative = growth inhibition": "inactive: 30.8%"}
{"smiles": "Cc1ccc(C(=O)C(C)CN2CCCCC2)cc1", "note": "(stereo not given)", "activity change, negative = growth inhibition": "inactive: 8.34%"}
{"smiles": "O=C(O)C1CCCN1C(=O)C12CC3CC(CC(C3)C1)C2", "note": "(stereo not given)", "activity change, negative = growth inhibition": "inactive: 39%"}
{"smiles": "CCc1ccc(C(C)NC(=O)C2CCCC2)cc1", "note": "(stereo not given)", "activity change, negative = growth inhibition": "inactive: 30.7%"}
{"smiles": "CCCC(=O)Nc1ccc(NC(=O)C2CC2)cn1", "activity change, negative = growth inhibition": "inactive: 20%"}
{"smiles": "O=C(O)Cc1ccc(O)c(O)c1", "activity change, negative = growth inhibition": "inactive: -11.8%"}
{"smiles": "CCCc1nc2c(C)cc(-c3nc4ccccc4n3C)cc2n1Cc1ccc(-c2ccccc2C(=O)O)cc1", "activity change, negative = growth inhibition": "inactive: -6.68%"}
{"smiles": "CC(C)(C)OC(=O)Nc1ccc([C@H](NC(=O)OC(C)(C)C)C(=O)OC(C)(C)C)cc1", "activity change, negative = growth inhibition": "inactive: -24.5%"}
{"smiles": "CCN(CC)C(=O)[C@H]1C[C@H](CC(=O)NCC23CC4CC(CC(C4)C2)C3)C(=O)N2CCc3c([nH]c4ccc(Cl)cc34)[C@]12C", "Potency": "active: 16.4 µM"}
{"smiles": "O=C(CN1C(=O)NC2(CCCC2)C1=O)Nc1ccccc1", "activity change, negative = growth inhibition": "inactive: 31.7%"}
{"smiles": "COc1ccc([C@H]2CC(=O)C=C(c3ccnc4ccc(Cl)cc34)C2)cc1", "Potency": "active: 8.2 µM"}
{"smiles": "NC(C(=O)NC1C(=O)N2C(C(=O)O)=C(Cl)CSC12)c1ccccc1", "note": "(stereo not given)", "activity change, negative = growth inhibition": "inactive: -19.7%"}
{"smiles": "CCc1ccc(-c2cc(C)no2)cc1S(=O)(=O)Nc1ccc(C)cn1", "activity change, negative = growth inhibition": "inactive: -28.6%"}
{"smiles": "O=C(Nc1cccc2ncccc12)c1ccc(Cl)cc1", "activity change, negative = growth inhibition": "inactive: 24.9%"}
{"smiles": "CCN1CCSc2ccc(C(=O)NCc3ccccc3Br)cc21", "activity change, negative = growth inhibition": "inactive: -100%"}
{"smiles": "COc1ccc(CCNC(=O)/C(C#N)=C/c2ccc(OCC(=O)NCC3CCCO3)cc2)cc1OC", "note": "(stereo not given)", "activity change, negative = growth inhibition": "inactive: -5.53%"}
{"smiles": "CC(C(=O)NCc1ccco1)n1cc([N+](=O)[O-])cn1", "note": "(stereo not given)", "activity change, negative = growth inhibition": "inactive: 44.1%"}
{"smiles": "CCCC(=O)Nc1ccc(OCC(O)CNC(C)C)c(C(C)=O)c1", "note": "(stereo not given)", "Potency": "inactive"}
{"smiles": "Cc1ccc(C)c(N2CCN(C3=C(c4ccccc4)C(=O)c4ccccc43)CC2)c1", "Potency": "active: 7.31 µM"}
{"smiles": "C=C1C(=O)O[C@H]2[C@H]1[C@H](OC(=O)/C(C)=C\\C)C[C@]1(CO1)[C@@H]1[C@H](OC(C)=O)C=C(C)[C@]21O", "Potency": "active: 11.6 µM"}
{"smiles": "CS(=O)(=O)c1ncc(Cl)c(C(=O)Nc2ccc(OC(F)F)cc2)n1", "Potency": "active: 0.82 µM"}
{"smiles": "COc1ccc(CCNC(=O)c2cc3sccc3n2Cc2ccc(Cl)cc2)cc1OC", "Potency": "active: 13 µM"}
{"smiles": "CCOC(=O)c1cnc(-n2nc(C)cc2C)nc1Nc1ccc(C)cc1", "Potency": "active: 4.61 µM"}
{"smiles": "CC1(c2ccc3ccccc3c2)NC(=O)N(CC(=O)NCc2cccs2)C1=O", "note": "(stereo not given)", "activity change, negative = growth inhibition": "inactive: -22.5%"}
{"smiles": "Nc1c(C(=O)c2ccc(Cl)cc2)oc2ccccc12", "activity change, negative = growth inhibition": "inactive: 8.68%"}
{"smiles": "O=C(Nc1ccc(F)c(Cl)c1)c1ccc2sc([C@H]3C[C@H](O)[C@@H](CO)O3)nc2c1", "Potency": "active: 18.4 µM"}
{"smiles": "COC(=O)c1ccccc1NC(=O)CCCn1nc(C)c2c(C)n(-c3ccccc3)nc2c1=O", "activity change, negative = growth inhibition": "inactive: -20.9%"}
{"smiles": "O=C(Cc1ccc(Cl)cc1)Nc1ccc(Cl)cn1", "activity change, negative = growth inhibition": "inactive: 38.2%"}
{"smiles": "COc1ccc(OC)c(/C=C/c2ccc3ccccc3[n+]2C)c1", "Potency": "active: 2 µM"}
{"smiles": "C=CC(C)N1C(=O)S/C(=C\\c2ccc(N3CCOCC3)cc2C)C1=O", "note": "(stereo not given)", "Potency": "active: 20.6 µM"}
{"smiles": "Cc1onc(-c2ccccc2)c1C(=O)N1CCCSC1=Nc1ccccc1", "activity change, negative = growth inhibition": "inactive: 38.7%"}
{"smiles": "O=C(COC(=O)c1cccnc1Cl)NC1CCCc2ccccc21", "note": "(stereo not given)", "activity change, negative = growth inhibition": "inactive: -4.2%"}
{"smiles": "O=C(O)c1n[nH]nc1-c1ccccc1", "activity change, negative = growth inhibition": "inactive: 44.8%"}
{"smiles": "C#CCOCCOCCOCCNc1nc(N2CCN(C(=O)C([C@@H](C)O)n3cc([C@@H](N)CCCCN)nn3)CC2)nc(N2CCN(C(=O)[C@H](CCCN=C(N)N)n3cc(C(N)[C@@H](C)CC)nn3)CC2)n1", "note": "(stereo not given in full)", "activity change, negative = growth inhibition": "inactive: 31.2%"}
{"smiles": "O=C(CCn1c(=O)[nH]c2ccccc2c1=O)Nc1ccccc1", "activity change, negative = growth inhibition": "inactive: 37.6%"}
{"smiles": "COc1c(O)cc2c(c1O)[C@@H]1OC(CO)C(O)C(O)[C@H]1OC2=O", "note": "(stereo not given in full)", "activity change, negative = growth inhibition": "inactive: 0.362%"}
{"smiles": "CCCC(CCC(=O)Nc1ccc(C(=O)OC)cc1)C(=O)O", "note": "(stereo not given)", "activity change, negative = growth inhibition": "inactive: 32.4%"}
{"smiles": "COc1nnc(-c2ccc(N3CCCCC3)c(NC(=O)c3ccccc3Cl)c2)c2ccccc12", "Potency": "active: 6.51 µM"}
{"smiles": "COc1cc2ccc(=O)oc2cc1O", "Potency": "inactive"}
{"smiles": "COc1cc(NS(=O)(=O)c2ccc(N)cc2)nc(OC)n1", "Potency": "inactive"}
{"smiles": "Cc1cccc(CNC(=O)c2ccc3c(c2)N(C)C(=O)C2CCCCN32)c1", "note": "(stereo not given)", "Potency": "active: 13 µM"}
{"smiles": "O=C(Nc1ncccn1)C12CC3CC(CC(C3)C1)C2", "activity change, negative = growth inhibition": "inactive: 40.9%"}
{"smiles": "CSc1ncnc2c1ncn2CCCNCCCc1ccccc1", "activity change, negative = growth inhibition": "inactive: 5.91%"}
{"smiles": "Cc1nn(CC(=O)NCC2CCCO2)c(=O)c2cc3ccccc3n12", "note": "(stereo not given)", "activity change, negative = growth inhibition": "inactive: 40.8%"}
{"smiles": "CCOC(=O)[C@@H]1[C@H]2COc3cc(OC)ccc3[C@@H]2N2C(=O)N(c3ccc(C)cc3)C(=O)[C@@]12C", "activity change, negative = growth inhibition": "inactive: -18.7%"}
{"smiles": "COC(=O)[C@@H]1[C@H](CCc2ccccc2)NC(=O)N(Cc2ccccc2)[C@@H]1C", "activity change, negative = growth inhibition": "inactive: -8.12%"}
{"smiles": "COc1cc(NC(=O)C2CCCN2S(=O)(=O)c2cccc3cccnc23)cc(OC)c1OC", "note": "(stereo not given)", "activity change, negative = growth inhibition": "inactive: -0.757%"}
{"smiles": "COc1ccc(NS(=O)(=O)c2cc3c(cc2C)NC(=O)CO3)c(OC)c1", "activity change, negative = growth inhibition": "inactive: -6.26%"}
{"smiles": "Cc1c(NC(=O)c2c(O)c3ccccc3n(C)c2=O)c(=O)n(-c2ccccc2)n1C", "activity change, negative = growth inhibition": "inactive: 39.4%"}
{"smiles": "CN(C)CC[C@@H](c1ccc(Br)cc1)c1ccccn1", "activity change, negative = growth inhibition": "inactive: -24.3%"}
{"smiles": "Cc1ccc(O)c(NC(=O)c2noc3c2CCCCC3)c1", "activity change, negative = growth inhibition": "inactive: -2.42%"}
{"smiles": "CCc1c(C)nc2c(OC)cccc2c1Cl", "activity change, negative = growth inhibition": "inactive: -25.1%"}
{"smiles": "CC(C)c1ccc(NC(=O)C2CCN(S(=O)(=O)c3ccc4c(c3)C(C)(C)C(=O)N4C)CC2)cc1", "Potency": "active: 16.4 µM"}
{"smiles": "CC(=O)c1ccc(NC(=O)COC(=O)C2C3CC4OC(=O)C2C4C3)cc1", "note": "(stereo not given)", "activity change, negative = growth inhibition": "inactive: 34.6%"}
{"smiles": "Cc1sc(NC(=O)c2cccs2)c(C(=O)OC(C)C)c1C", "activity change, negative = growth inhibition": "inactive: -19.2%"}
{"smiles": "O=c1[nH]c2cc(Cl)ccc2c(O)c1-c1cccc(Oc2ccccc2)c1", "activity change, negative = growth inhibition": "inactive: -7.32%"}
{"smiles": "COC(=O)c1c(C)c2c(c(C)c1O)OC(=O)c1c(C)c(Cl)c(O)c(Cl)c1O2", "activity change, negative = growth inhibition": "inactive: 6.42% [at 9.04 µM]"}
